About 16,000 (4.4%) of roughly 360,000 compounds were called active. The shares of active, inactive and inconclusive entries below differ from those in the screen. Calls follow the shape of the dose curve; as a rule, active = well fitted inhibition curve with a large enough effect; inconclusive = small, poorly fitted or top-dose-only effect; inactive = no such curve, though single readings can be large or run the other way. A potency beside an inconclusive call is a rough fit, not a confirmed value.
These compounds were tested against Bromodomain adjacent to zinc finger domain protein 2B (Homo sapiens) (UniProt Q9UIF8) (assay: qHTS Assay for Inhibitors of BAZ2B). Settings: AlphaScreen BAZ2B-H3K14Ac peptide displacement; activity change, negative = inhibition: at 114 µM (top of the series).
UniProt Q9UIF8, sequence (Q9UIF8 whole entry, looked up, the tested form may be a part): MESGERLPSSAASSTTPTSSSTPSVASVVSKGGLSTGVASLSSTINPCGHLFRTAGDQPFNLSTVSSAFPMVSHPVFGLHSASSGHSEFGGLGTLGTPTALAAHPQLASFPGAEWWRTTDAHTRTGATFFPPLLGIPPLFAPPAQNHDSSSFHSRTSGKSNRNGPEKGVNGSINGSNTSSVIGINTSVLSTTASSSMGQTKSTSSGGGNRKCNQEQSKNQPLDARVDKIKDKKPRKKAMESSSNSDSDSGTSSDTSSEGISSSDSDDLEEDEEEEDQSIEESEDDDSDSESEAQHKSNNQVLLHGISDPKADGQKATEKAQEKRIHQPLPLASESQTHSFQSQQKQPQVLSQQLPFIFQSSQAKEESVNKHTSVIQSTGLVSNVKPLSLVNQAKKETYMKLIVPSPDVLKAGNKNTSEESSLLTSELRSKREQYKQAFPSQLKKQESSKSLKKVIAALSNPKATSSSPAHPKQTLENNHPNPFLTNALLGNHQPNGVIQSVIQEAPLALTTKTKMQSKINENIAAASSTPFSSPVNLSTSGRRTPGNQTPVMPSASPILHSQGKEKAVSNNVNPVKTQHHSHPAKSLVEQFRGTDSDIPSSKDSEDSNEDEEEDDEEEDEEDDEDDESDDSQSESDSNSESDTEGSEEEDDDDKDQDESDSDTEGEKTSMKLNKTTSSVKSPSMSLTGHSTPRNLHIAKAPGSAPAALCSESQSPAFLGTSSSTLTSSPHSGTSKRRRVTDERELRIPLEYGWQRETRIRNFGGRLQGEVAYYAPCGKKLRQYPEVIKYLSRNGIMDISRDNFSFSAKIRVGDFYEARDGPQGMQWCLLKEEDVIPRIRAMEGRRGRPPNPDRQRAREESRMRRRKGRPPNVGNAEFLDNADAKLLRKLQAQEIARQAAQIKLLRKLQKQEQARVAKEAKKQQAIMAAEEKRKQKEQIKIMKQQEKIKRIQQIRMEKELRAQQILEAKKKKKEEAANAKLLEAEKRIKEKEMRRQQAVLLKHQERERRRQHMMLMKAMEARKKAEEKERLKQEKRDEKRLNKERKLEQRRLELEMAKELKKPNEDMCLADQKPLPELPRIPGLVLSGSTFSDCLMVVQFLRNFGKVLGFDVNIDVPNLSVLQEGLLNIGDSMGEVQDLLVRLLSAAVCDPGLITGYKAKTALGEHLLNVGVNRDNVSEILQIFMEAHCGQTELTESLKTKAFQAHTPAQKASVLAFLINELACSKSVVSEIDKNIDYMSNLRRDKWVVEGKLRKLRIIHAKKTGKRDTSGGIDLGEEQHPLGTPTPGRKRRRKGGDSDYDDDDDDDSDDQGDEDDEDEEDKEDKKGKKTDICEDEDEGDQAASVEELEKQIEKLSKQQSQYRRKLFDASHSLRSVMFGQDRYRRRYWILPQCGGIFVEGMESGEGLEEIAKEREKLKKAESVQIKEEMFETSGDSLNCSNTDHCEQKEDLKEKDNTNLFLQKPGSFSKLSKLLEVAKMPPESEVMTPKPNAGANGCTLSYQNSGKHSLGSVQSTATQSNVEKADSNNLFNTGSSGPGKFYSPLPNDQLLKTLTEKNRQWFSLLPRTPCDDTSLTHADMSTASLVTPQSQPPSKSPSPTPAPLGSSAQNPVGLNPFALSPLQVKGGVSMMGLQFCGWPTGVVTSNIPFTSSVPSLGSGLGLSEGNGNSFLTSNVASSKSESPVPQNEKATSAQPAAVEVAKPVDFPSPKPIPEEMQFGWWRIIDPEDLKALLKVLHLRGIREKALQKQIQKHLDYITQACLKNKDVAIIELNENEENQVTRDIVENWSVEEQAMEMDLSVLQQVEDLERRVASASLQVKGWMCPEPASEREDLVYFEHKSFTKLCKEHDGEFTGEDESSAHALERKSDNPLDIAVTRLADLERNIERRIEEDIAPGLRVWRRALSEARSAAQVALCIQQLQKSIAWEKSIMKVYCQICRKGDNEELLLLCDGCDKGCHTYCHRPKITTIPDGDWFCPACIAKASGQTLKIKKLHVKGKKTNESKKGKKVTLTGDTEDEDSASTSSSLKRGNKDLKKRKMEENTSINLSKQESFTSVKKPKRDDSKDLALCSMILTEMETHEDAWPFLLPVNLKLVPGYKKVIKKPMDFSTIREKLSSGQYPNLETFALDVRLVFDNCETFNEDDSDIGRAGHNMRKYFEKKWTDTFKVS
Description: BAZ2B (bromodomain adjacent to zinc finger domain, 2B) belongs to a family of ubiquitously expressed bromodomain containing proteins, which biological function has not yet been elucidated. […] The interaction of BAZ2B with ISWI mediated by the BAZ1 motif has recently been described. […] The protocol is based on the AlphaScreen (PerkinElmer) displacement assay developed by NCGC [5], but uses the peptide ligand Biot-H3K14Ac, a high affinity binding partner for BAZ2B, in an AlphaScreen format. Although AlphaScreen has significant advantages with its utility in a variety of epigenetic target assays, the primary screening data provided in this deposition should be used with caution due to the prevalence of screening artifacts. The top compound concentration tested was 110uM in this assay, which increases number of actives and potential artifacts. An AlphaScreen counterscreen is highly recommended to be run against any putative actives to eliminate non-specific artifacts. Alternatively, one can use other AlphaScreen assays in PubChem to filter out promiscuous hits. Eberharter, A. et al. ACF1 improves the effectiveness of nucleosome mobilization by ISWI through PHD-histone contacts. The EMBO journal 23, 4029-4039. 2004. PMID: 15457208 [2] Jones, M.H. et al. A novel family of bromodomain genes. Genomics 63, 40-45. 2000. PMID: 10662543 [3] Yasgar, et al. Compound Management for Quantitative High-Throughput Screening. JALA. 2008 Apr;13(2):79-89. PMID: 18496600 [4] Inglese, et al. Quantitative high-throughput screening: a titration-based approach that efficiently identifies biological activities in large chemical libraries. Proc Natl Acad Sci. 1;103(31):11473-8. 2006. PMID: 16864780 [5] Quinn et al. A chemiluminescence-based method for identification of histone lysine methyltransferase inhibitors. Mol Biosyst 6(5): 782-8. 2010. PMID: 20567762 [6] Baell,Holloway. New substructure filters for removal of pan assay interference compounds (PAINS) from screening libraries and for their exclusion in bioassays. J Med Chem. 53(7):2719-40. 2010. PMID: 20131845 NIH Molecular Libraries Probe Production Network [MLPCN] NIH Chemical Genomics Center [NCGC] Structural Genomics Consortium (SGC) NIH Grant: 5U54 MH084681-02
To each well of a 1,536w plate, 2ul of BAZ2B protein (final 50nM) and 1ul biotinylated histone peptide acetylated at Lys14 [b-H3(5-23)K14Ac] (final 50nM) were added in 1x PBS buffer, pH 7.4, containing 0.01% Tween-20, using a nanoliter dispenser. Formation of a protein-peptide complex proceeded at room temperature for 30 min. A Kalypsys pin-tool was employed to transfer 23 nL of library compound solution in DMSO to each well. Following a 30 min incubation of the protein-peptide complex with compounds at room temperature, a mixture of 40 ug/mL each streptavidin-coated donor and nickel chelate acceptor AlphaScreen beads (final 10 ug/mL) were added in a 1ul dispense for a final volume of 4ul. A brief centrifugation followed (1000rpm, 1 min) and were then incubated protected from the light for 20 min at room temperature. Plates were read on an EnVision multilabel plate reader using the 1,536 plate HTS AlphaScreen aperture (excitation time 80 ms, measurement time 240 ms).
% is scaled to controls: 0 for no effect and ±100 for the full control effect; potency is read from the fitted curve at half-maximal effect; tags tell the direction and shape of the fitted curve.
Also: nearly all actives have a fitted effect of over 60% in size.

Structure (SMILES)	Potency	activity change, negative = inhibition
COc1cc2c(cc1OC)C(c1cc(C)ccc1C)CC(=O)N2 (stereo not given)	inconclusive: 44.7 µM [inhibitor, partial curve]	
COc1ccc(-c2[nH]c3ccccc3c2SCCNC(=O)c2ccccc2)cc1	inconclusive: 44.7 µM [inhibitor, partial curve]	
Cc1cc(NC(=O)c2ccccc2Cl)no1		inactive: 2.25%
COc1ccc(C(=O)Nc2nc(C)c(C)s2)cc1OC	inconclusive: 56.2 µM [inhibitor, partial curve]	
Cc1cc(SCC(=O)c2cccc([N+](=O)[O-])c2)nc(=O)[nH]1	inconclusive: 39.8 µM [inhibitor, partial curve]	
Cc1ccc(NC(=O)CSc2nc3nccnc3c(=O)n2CCc2c[nH]c3ccccc23)cc1	inconclusive: 89.1 µM [inhibitor, single point]	
O=C(COc1ccccc1F)Nc1ccc(S(=O)(=O)Nc2nccs2)cc1		inactive: -17.7%
CC(=O)OC(COc1ccccc1)Cn1cnc2cc(C)c(C)cc21 (stereo not given)	inconclusive: 79.4 µM [inhibitor, single point]	
CCn1nc(-c2ccccc2)c(-c2ccccc2)c(C(=O)Nc2nc(C)c(C(=O)N(C)C)s2)c1=O	inconclusive: 89.1 µM [inhibitor, single point]	
O=C(CCC(=O)N1CCN(S(=O)(=O)c2ccc3ccccc3c2)CC1)Nc1cc(Cl)cc(Cl)c1		inactive: -10.3%
CCOc1ccc(-c2nn(-c3ccccc3)cc2/C=C2\SC(=S)N(C3CCS(=O)(=O)C3)C2=O)cc1 (stereo not given)		inactive: -25.2%
COC(=O)/C=C1\SC(=NC(=O)c2ccc(C)cc2)NC1=O	inconclusive: 79.4 µM [inhibitor, partial curve]	
CCc1ccc(CSc2nc(-c3ccc(OC)cc3)nc3c2Cc2c(CO)cnc(C)c2O3)cc1	inconclusive: 79.4 µM [inhibitor, single point]	
Cc1cccc(-n2ccnc2SCC(=O)Nc2nccs2)c1	inconclusive: 79.4 µM [inhibitor, single point]	
CN(C)CC(=O)N1CCc2ccccc2C1	active: 50.1 µM	
COc1ccc(NC(=O)COc2ccc(/C=N/n3c(C)nnc3C)cc2OC)cc1	inconclusive: 7.94 µM [inhibitor, single point]	
COc1ccc(C2C(C(=O)N3CCN(c4ccc(OC)cc4)CC3)c3ccccc3C(=O)N2C)cc1 (stereo not given)	inconclusive: 79.4 µM [inhibitor, single point]	
CN1CCN(S(=O)(=O)c2ccc(N(C)Cc3ccc(OC(F)F)cc3)c([N+](=O)[O-])c2)CC1	active: 50.1 µM	
O=C(NNc1ccc([N+](=O)[O-])cc1[N+](=O)[O-])c1ccco1	active: 39.8 µM	
O=C(CSc1n[nH]c(=O)n1Cc1ccccc1)Nc1ccc(F)c(F)c1F	inconclusive: 39.8 µM [inhibitor, single point]	
CC1=C(C(=O)OC(C)C)C(c2c(O)ccc3ccccc23)NC(=O)N1 (stereo not given)		inactive: 7.31%
CCSc1nnc(SCC(=O)NC2CCCCC2)s1		inactive: 8.2%
Cc1ccccc1Nc1nc(N)nc(CSc2nnnn2-c2ccccc2)n1	inconclusive: 56.2 µM [inhibitor, partial curve]	

Structure (SMILES)	Potency	activity change, negative = inhibition
COC(=O)c1cccnc1NC(=S)NNC(=O)c1ccccc1	inconclusive: 3.98 µM [inhibitor, full curve]	
O=C(O)c1ccccc1/C=N/NC(=O)c1cc(-c2ccco2)nc2ccccc12	active: 20 µM	
CCN(CC)CCCCCC(=O)Nc1ccccc1C(=O)Nc1ccccc1	inconclusive: 89.1 µM [inhibitor, single point]	
Cc1ccc(NC(=O)CCN2CCC(C)CC2)cc1	inconclusive: 79.4 µM [inhibitor, single point]	
CCOc1cccc2c1OC1(C)CC2NC(=O)N1c1cccc(C(=O)N2CCN(c3ccccn3)CC2)c1 (stereo not given)		inactive: -15.7%
N#CC(C(=S)Nc1ccccc1)c1nc2ccccc2[nH]1 (stereo not given)		inactive: -5.99%
CN(C)CCCN(C(=O)C1COc2ccccc2O1)c1nc2cc3c(cc2s1)OCO3 (stereo not given)	inconclusive: 79.4 µM [inhibitor, single point]	
CC1(C)OC(C)(C)/C(=C/Nc2ccc(O)cc2)C1=O	inconclusive: 89.1 µM [inhibitor, single point]	
O=C(CSc1nccn1Cc1ccco1)Nc1ccccc1F	inconclusive: 79.4 µM [inhibitor, single point]	
O=C(O)CCn1c(-c2ccccc2)cc2ccccc21	inconclusive: 5.01 µM [inhibitor, full curve]	
Cc1ccc(C(=O)Nc2nnc(-c3ccco3)o2)cc1C	inconclusive: 89.1 µM [inhibitor, single point]	
COc1cc(NCCCC(C)N)c2ncccc2c1 (stereo not given)	active: 31.6 µM	
COc1ccc(CNC(=O)c2nnn(CC(=O)Nc3cc(C)cc(C)c3)c2N)cc1	inconclusive: 89.1 µM [inhibitor, single point]	
CN(C)CCCN=Cc1c(O)n(Cc2ccc3c(c2)OCO3)c(=O)c2ccccc12	inconclusive: 50.1 µM [inhibitor, partial curve]	
O=C(N/N=C/c1ccco1)c1ccc(C(=O)N/N=C/c2ccco2)o1	active: 56.2 µM	
O=C1C(Nc2ccccc2)=C(N2CCCCC2)C(=O)c2ccccc21	active: 25.1 µM	
O=C(O)Cn1ccnc1	inconclusive: 100 µM [inhibitor, single point]	
COc1ccc(CNC[C@@H](CCCCN(C)Cc2ccc(OC)cc2)N2C[C@H](c3ccccc3)N(CCc3ccc(Cl)c(Cl)c3)C(=O)C2=O)cc1	inconclusive: 56.2 µM [inhibitor, partial curve]	
COc1ccc(C(=O)/C=C/c2ccc(OC)c(CN3CCOCC3)c2)cc1	inconclusive: 79.4 µM [inhibitor, single point]	
Cc1cc(C)cc(NC(=O)CSc2nncn3c2cc2occc23)c1	inconclusive: 79.4 µM [inhibitor, partial curve]	
O=S1(=O)Nc2c(ccc3cccnc23)-c2ccccc21	active: 6.31 µM	
Cc1ccc(-c2csc(-c3c[nH]c4ccccc34)n2)c(C)c1	inconclusive: 50.1 µM [inhibitor, partial curve]	

— PubChem BioAssay AID504333 (National Center for Advancing Translational Sciences (NCATS), 2011)
